{
  "source": "PubChem BioAssay AID1461",
  "about": "(National Center for Advancing Translational Sciences (NCATS), 2008)",
  "note": "Among all 220,000 compounds or so, about 2,300 (1%) were called active. Inconclusive means that the source gave no clear call. Such entries were picked first, then a sample of the others. Calls come from the whole dose curve; as a rule, active = well fitted inhibition curve with a large enough effect; inconclusive = small, poorly fitted or top-dose-only effect, or effect the other way; inactive = no such curve, though single readings can be large or run the other way. Potencies of inconclusive entries are left out as doubtful fits. % is set by controls: 0 for no effect and ±100 for the full control effect; potency is the fitted concentration of half-maximal effect; tags give direction and shape of the fitted curve.",
  "data": [
    {"biological_target": "Neuropeptide S receptor (Homo sapiens) (UniProt Q6W5P4)", "sequence (Q6W5P4 whole entry, looked up)": "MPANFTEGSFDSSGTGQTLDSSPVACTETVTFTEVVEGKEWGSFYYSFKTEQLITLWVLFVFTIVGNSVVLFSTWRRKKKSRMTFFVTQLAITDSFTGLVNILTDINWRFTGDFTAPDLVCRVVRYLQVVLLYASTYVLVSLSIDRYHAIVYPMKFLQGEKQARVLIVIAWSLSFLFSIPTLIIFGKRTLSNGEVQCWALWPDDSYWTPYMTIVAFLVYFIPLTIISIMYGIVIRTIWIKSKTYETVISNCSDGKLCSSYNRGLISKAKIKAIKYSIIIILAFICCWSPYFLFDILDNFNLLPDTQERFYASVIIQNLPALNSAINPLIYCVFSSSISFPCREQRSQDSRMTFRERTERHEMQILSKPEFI", "experiment": "qHTS Assay for Antagonists of the Neuropeptide S Receptor: cAMP Signal Transduction; note: nearly all actives have a fitted effect of over 50% in size", "settings": "CHO-NPSR cells, cAMP TR-FRET, antagonist mode; activity change, negative = inhibition: at 38.3 µM (top of the series) unless noted", "values": [
      {"smiles": "COc1ccc2nc(SC)c(C#N)cc2c1", "Potency": "inconclusive [inhibitor, single point]"},
      {"smiles": "CCc1cccc(NC(=O)CN(c2ccc(OC)cc2)S(=O)(=O)c2c(C)n[nH]c2C)c1", "Potency": "inconclusive [inhibitor, full curve]"},
      {"smiles": "Cc1cc(C)cc(C(=O)N2CC(C)OC(C)C2)c1", "note": "(centres undefined)", "Potency": "inconclusive [inhibitor, single point]"},
      {"smiles": "Oc1ccc(Br)cc1/C=N/Nc1nc(N2CCCCC2)nc(N2CCOCC2)n1", "Potency": "inconclusive [activator, partial curve]"},
      {"smiles": "COc1ccc(N2CC(C(=O)NCCc3ccc(OC)c(OC)c3)CC2=O)cc1", "note": "(centres undefined)", "activity change, negative = inhibition": "inactive: 7.5% [at 46.1 µM]"},
      {"smiles": "O=C(CSc1nc(-c2ccccc2)cs1)N1CCc2ccccc21", "Potency": "inconclusive [inhibitor, single point]"},
      {"smiles": "C=CC(C)Sc1nc2c(c(=O)n(C)c(=O)n2C)n1Cc1ccccc1Cl", "note": "(centres undefined)", "Potency": "inconclusive [inhibitor, single point]"},
      {"smiles": "O=C(c1ccco1)N(CCCN1CCOCC1)c1nc(-c2ccc(Cl)cc2)cs1", "Potency": "inconclusive [inhibitor, partial curve]"},
      {"smiles": "COc1ccc(C(=O)NC(=S)NC(C)(C)C)cc1Br", "Potency": "inconclusive [inhibitor, single point]"},
      {"smiles": "COc1cc2[nH]c(=S)n(NC(=O)c3ccccc3)c(=O)c2cc1OC", "Potency": "inconclusive [activator, single point]"},
      {"smiles": "CCC1=NN2C(=N)/C(=C/c3cc(C)n(-c4ccccc4)c3C)C(=O)N=C2S1", "activity change, negative = inhibition": "inactive: 19.1%"},
      {"smiles": "O=c1cc(CN2CCOCC2)c2c(ccc3ccccc32)o1", "Potency": "inconclusive [inhibitor, single point]"},
      {"smiles": "COc1ccc(NC(=O)c2sc(=S)[nH]c2N)cc1", "activity change, negative = inhibition": "inactive: -22.3% [at 46.1 µM]"},
      {"smiles": "COc1cc(/C=C2/N=C(C3CCCCC3)OC2=O)cc(OC)c1OC", "Potency": "inconclusive [inhibitor, partial curve]"},
      {"smiles": "O=C(O)c1cccc(NC2=C(Cl)C(=O)c3ccccc3C2=O)c1", "Potency": "inconclusive [inhibitor, single point]"},
      {"smiles": "CCC(SC1=NCCS1)C(=O)Nc1nnc(-c2ccccc2OC)s1", "note": "(centres undefined)", "Potency": "inconclusive [inhibitor, partial curve]"},
      {"smiles": "C=CCn1c(=O)/c(=C/c2ccc(Cl)cc2)s/c1=C(/C#N)c1nnc2n1CCCCC2", "Potency": "inconclusive [inhibitor, single point]"},
      {"smiles": "CN1CCN(c2nc3c(c(=O)[nH]c(=O)n3C)n2CCSc2nnnn2-c2ccccc2)CC1", "activity change, negative = inhibition": "inactive: 7.78%"},
      {"smiles": "CCOc1ccccc1NC(=O)CSc1nnc(-c2ccccc2Cl)n1Cc1ccco1", "Potency": "inconclusive [inhibitor, single point]"}
    ]}
  ]
}
